ChEMBL document CHEMBL4888484, “Replenishing the malaria drug discovery pipeline: Screening and hit evaluation of the MMV Hit Generation Library 1 (HGL1) against asexual blood stage Plasmodium falciparum ,using a nano luciferase reporter read-out” (2022)
The whole screen tested about 150,000 compounds, of which about 540 (0.36%) showed an effect of 50% or more. The list shows a part of the results.

System: Plasmodium falciparum
Assay: Primary screen in NF54 nanoGlo assay, in single point, at 2uM, 72h; a lower Z score goes with more inhibition
Assay type: functional, Erythrocyte
Conditions: timepoint 72 hour

SMILES	% Inhibition [%]	Z score
COc1ccc2c(c1)CCN(Cc1cc(O)n3nc(C)nc3n1)C2	-9	1.65
CC1COC(c2cccc(Cl)c2)CN1C(=O)c1ccc(=O)n(C)n1 (configuration not stated)	-7	0.63
N#CCNC(=O)CCOc1ccccc1Cl	33	-2.99
Cc1nccc(NC(=O)CCC(F)(F)F)c1Cl	-1	0.05
O=C(O)c1ccc(C(=O)N(CC2CC2)c2ccccc2)s1	-1	0.21
CCCOc1cccc(-c2cn(Cc3cc(C)on3)nn2)c1	16	-2.03
CC(C)[C@@H](O)CNC(=O)c1cc(Br)cnc1C1CC1	-10	1.65
O=C1COc2ccc(S(=O)(=O)N[C@H]3CCOC3=O)cc2N1	-20	1.75
CC[C@](C)(NC(=O)Cc1ccc2c(c1)NC(=O)C2)c1nc(C)cs1	17	-2.16
O=C(NC1(CN2CCCC2)CCCCC1)[C@H]1CCOC1	18	-2.35
Cc1nc(C)c(C(=O)N(CCN2CCOCC2)c2ccccc2)s1	-2	0.26
Cc1ccccc1CNC(=O)c1ccccc1NC(=O)C1CC=CCC1C(=O)O (configuration not stated)	33	-4.24
CC(C)(C#N)CS(=O)(=O)N1CCN(c2cccc3[nH]cnc23)CC1	-7	1.45
Cc1nnc([C@@H]2CC3(CCN(CCc4ccccc4)CC3)CN2CCc2ccccc2)o1	-3	0.42
COc1ccc(Cc2nc(-c3cccc(-c4csc(C)n4)c3)no2)cc1	-2	0.25
C=CCN(C(=O)CCn1c(C)cc(C)nc1=O)C1CCCC1	-5	0.96
Cc1ccc(CC(=O)Nc2nc(-c3ccccc3)c(Br)s2)cn1	-10	1.58
Cc1cccc([C@H]2CCCN(C(=O)CCc3nncn3C)C2)c1	-5	0.92
CC[C@]1(N2CCN(S(=O)(=O)c3ccc(F)c(C)c3)CC2)CCN(S(C)(=O)=O)C1	1	-0.06

SMILES	% Inhibition [%]	Z score
Cc1cnc(N2CCCC2CO)nc1N1CCCC1CO (configuration not stated)	-5	0.99
Cc1ccc2c(c1)c(CNc1ncnc3c1CCNCC3)nn2C	-12	2.34
N#Cc1ccc(Oc2ccc(NC(=O)N3CCCC3)cc2)cc1	2	-0.27
Cc1nc(NCC(C)C)sc1C(=O)Nc1cccc2[nH]ccc12	1	-0.12
CCn1cnnc1CCn1cnc(-c2ccccc2)c1[C@H]1CCOC1	4	-0.38
CCc1ccc(C(=O)N2C[C@@H](CN3CCCCCC3)[C@@H](CO)C2)s1	-8	1.39
Cc1ccc2cc3c(nc2c1)N(C(=O)c1ccc(F)cc1)CC3	-14	1.55
CC[C@H](C)Oc1cc(CNC(=O)Nc2cnn(C)c2)ccn1	-9	1.69
O=S(=O)(Nc1cc(-c2ccsc2)no1)c1ccc(F)c(F)c1	-3	0.5
O=C(N[C@@H](CC1CCC1)c1ccccc1)c1cc2c(=O)[nH]cnc2cn1	3	-0.49
O=S(=O)(Nc1nc2ccccc2nc1Nc1ccc(F)c(Cl)c1)c1cccc2c1N=S=N2	-7	0.9
CCOC(=O)C(C)N1CC(C)OC(C2CC2)C1 (configuration not stated)	-5	0.61
CCOCC(=O)N1CCC[C@H]1c1nn(CCOc2ccccc2)c2c1COCC2	30	-2.9
CN(C)S(=O)(=O)c1ccc(C(=O)Nc2cnoc2)cc1	-7	1.2
CCN(CC)Cc1cnc2c(C(=O)N3CCCCCCC3)cnn2c1	3	-0.44
O=C(Nc1cnc2nc[nH]n2c1=O)c1ccc(F)cc1	0	0.04
CCN(C)c1nc(-c2cccc(C)c2)ncc1C(=O)Nc1ccc(F)cc1	-22	4.19
O=C(c1ccc2c(c1)CCO2)N1C[C@H]2C[C@H](O)[C@H](O)C[C@H]2C1	-4	0.71
COc1ccccc1CCCn1cccc(C)c1=O	0	0.04

SMILES	% Inhibition [%]	Z score
CCc1nc(NCCNC(=O)c2ccco2)c2cc(Cl)cc(Cl)c2n1	3	-0.35
Cc1ccc(NS(C)(=O)=O)c(C(=O)NCC(=O)NC(C)(C)C)c1	2	-0.27
Cc1ccsc1C(=O)N1C[C@H]2CCC[C@@H](O)[C@H]2C1	-12	1.15
Cc1ccc2[nH]cc(-c3cnn4cccnc34)c2c1	7	-0.67
Cc1ccc(CN2CCC(CN(C)C(=O)C3CCCC(=O)N3)C2)s1 (configuration not stated)	5	-0.67
CCCCOc1c(Cl)cc(CNCC)cc1Cl	9	-1.58
O=C(NCc1c[nH]nc1-c1ccc(F)cc1)c1cn(CC2CCCCC2)nn1	-7	1.21
COC1(CNC(=O)NC[C@H](C)c2ccsc2)CCC1	6	-0.62
O=C(c1cc(Cl)ccc1Cl)N1CCCN(CCn2cccn2)CC1	-21	4.07
Cc1cnc(C2CC2)n1CCNC(=O)C(C)C	-8	1.43
C[C@](NC(=O)CCCc1nc(C2CC2)no1)(C(=O)O)c1cc(F)ccc1F	-23	2.36
Cn1nnc2ccc(-c3noc(C4CC4)n3)cc21	-9	1
O=C(Nc1nc(C(=O)Nc2ccc(Br)cc2)co1)c1ccncc1	8	-1.04
O=C(Nc1cccc(-c2nnco2)c1)[C@@H]1CCCN1S(=O)(=O)c1ccccc1F	-10	1.32
CN1c2cccnc2CN(C2CCCC2)CC[C@H]1CO	-9	1.3
CN1CCN(C(=O)c2ccncc2)c2ccccc2C1	-4	0.52
Cc1cc(CNC(=O)Nc2ccccc2N2CCCC2=O)on1	-3	0.38
COCc1ccc(C(=O)N[C@@H](C)Cc2cccc(C)n2)o1	-1	0.17
